This passage reports self-cleavage results from the RNAGym collection of RNA variant scans (doi:10.7554/elife.90254).

The source gives no read counts; variants with many changes may rest on few reads.

B1: LINE1-mini (parent)
chain: GGCAGAGCUCAACACAGCGUGGCAAAGUGGCUGUGGCUAGACUGCC

The series covers variants of B1. Description: self-cleavage, relative activity (ratio to wild type); higher = more cleavage; in vitro, sequencing; the parent is a self-cleaving ribozyme.
On to GGCAGAGCUCAACACAGCGUGGCUGAGUGGCUGUGGCUAAAGUGCC, for which the self-cleavage turned out to be 0. Regarding GGCAGAGCUCAACACAGCGUGGCUAGGUGGCUAUGGUUAGACUGCA, the self-cleavage is 0.02.

For GGCAGAGCUCAACACAGCGUGGCUAAGUUGAUGCAGCUAGACAGCC, the self-cleavage worked out at 0.02.

In the case of GGCAGAGCUCAACACAGCGUGGCACAAUGGUUGUGGCUAGACUGCC, the self-cleavage turned out to be 0.36. As to GGCAGAGCUCAACACAGCGUGGCACAGUGGCUGUGGCUAGACGGUC, the self-cleavage is 1.08. To GGCAGAGCUCAACACAGCGUGGCACAGUGGGGGUGGCUAGACUGCC belongs 0.06. With GGCAGAGCUCAACACAGCGUGGCAGAGUGGCUGUGGCUAGAUUUCC, the self-cleavage is 0.05. Turning to GGCAGAGCUCAACACAGCGUGGCUAAGUGGCUGCGGCCAGACUGCC, the self-cleavage was 0.07. As to GGCAGAGCUCAACACAGCGUGGCGUAUUGGCUGUGGCUAGACUGCC, the self-cleavage was 0.19. As for GGCAGAGCUCAACACAGCGUGGCGUAAUGGCUGUGGCUAGACUGCC, the self-cleavage stood at 2.76. In the case of GGCAGAGCUCAACACAGCGUGGCGAAGUGGCUCUGCCUAGACGGCC, the self-cleavage worked out at 0.01.

GGCAGAGCUCAACACAGCGUGGCGCAGUGGCUGUGGCUAAACUGCC: the self-cleavage turned out to be 0.03. Take GGCAGAGCUCAACACAGCGUGGCACAGUUGCUGUGGCUAGAAUGCC: the self-cleavage amounted to 0.2. On to GGCAGAGCUCAACACAGCGUGGCGAAGUUGCUGUGGCUAGACUACC, for which the self-cleavage amounted to 0.52. Take GGCAGAGCUCAACACAGCGUGGCCAAGUGGCUGUGGCUAGCGUGAC: the self-cleavage came out at 0.09. Regarding GGCAGAGCUCAACACAGCGUGGCGAAGUGGCUGUGUUUAGACUGCC, the self-cleavage worked out at 0.01. To GGCAGAGCUCAACACAGCGUGGCACAGUGGCUGUGGCUAGAAUUCC belongs 0.26.

For the variant GGCAGAGCUCAACACAGCGUGGCGAAGUGUCUUUGGCGCGACUGCC, the self-cleavage was 0.12.

Turning to GGCAGAGCUCAACACAGCGUGGCCAAGUGGCCGUGGAUAGACUGCC, the self-cleavage was found to be 0.06. As to GGCAGAGCUCAACACAGCGUGGCGAAGCGACUGUGGCUAGACUGCC, the self-cleavage was found to be 0.59.

For GGCAGAGCUCAACACAGCGUGGCGAACUGCCUGUGACUAGACUGCC, the self-cleavage amounted to 0.06.

As to GGCAGAGCUCAACACAGCGUGGCUAAGUGGCUGUGGCUAGACUACA, the self-cleavage was 0.06.

GGCAGAGCUCAACACAGCGUGGCACAGUGGCUGAGGCAAGACUGCC: the self-cleavage was found to be 0.09. Take GGCAGAGCUCAACACAGCGUGGCCAAGUGGCUGUGGCGAGACUGCG: the self-cleavage is 0.03.

As to GGCAGAGCUCAACACAGCGUGGCACCGUGGCUGUGGCUAGACUCCC, the self-cleavage stood at 0.42. To GGCAGAGCUCAACACAGCGUGGCCAACUACCUGUGGCUAGACUGCC belongs 1.1. For the variant GGCAGAGCUCAACACAGCGUGGCUAAGUGACUGUGGUUAGAAUGCC, the self-cleavage was 0.14. GGCAGAGCUCAACACAGCGUGGCACAGUGGAUGUCGCUAGACUGCA: the self-cleavage came to 0.04.

Consider GGCAGAGCUCAACACAGCGUGGCUAAGUGGCUGUGACUAGACAGCC, for which the self-cleavage amounted to 0.28. To GGCAGAGCUCAACACAGCGUGGCCAAGUGGCUGUGGUUAGACCGCC belongs 0.26; to GGCAGAGCUCAACACAGCGUGGCAGAGUGGGUGUGGCUAGACAGCC, 0; to GGCAGAGCUCAACACAGCGUGGCUAAGUGGCUGUCGCUAGAAUUCC, 0.02. To GGCAGAGCUCAACACAGCGUGGCACAGUGGCUGCGGCUACACUGCC belongs 0.04; to GGCAGAGCUCAACACAGCGUGGCGAAGUGGCUGUGGCUACACUGCU, 0.11. Regarding GGCAGAGCUCAACACAGCGUGGCAGAGUAGCUGUGGUUAGACUGCC, the self-cleavage was found to be 0.02. To GGCAGAGCUCAACACAGCGUGGCUACGUGGCUGUGGCAAGACUGCC belongs 0.14; to GGCAGAGCUCAACACAGCGUGGCCAUGUGGCUGCGGCUAGACUGCC, 0.09. Regarding GGCAGAGCUCAACACAGCGUGGCACACUGGCUGUGGCUAGACCGCC, the self-cleavage was 0.01.

GGCAGAGCUCAACACAGCGUGGCUGAGUGGCUGUGGCUAGACCGCC: the self-cleavage amounted to 0.03. As to GGCAGAGCUCAACACAGCGUGGCACAGUCGCUGUAGCUAGCCUGGC, the self-cleavage amounted to 0.01. In the case of GGCAGAGCUCAACACAGCGUGGCCAAGUGGCUGUGGCUAGAAUGAC, the self-cleavage was found to be 0.04. For the variant GGCAGAGCUCAACACAGCGUGGCACAGUGGUUGUGCCUAGACUGCC, the self-cleavage is 0.03. GGCAGAGCUCAACACAGCGUGGCAGAGUGGCUCUGCCUGGACGGCC: the self-cleavage is 0. Consider GGCAGAGCUCAACACAGCGUGGCUAAGUGGCUGUGGACAGACUGCC, for which the self-cleavage turned out to be 0.96.

With GGCAGAGCUCAACACAGCGUGGCACAGUGGCAGUGUAUAGACUGCC, the self-cleavage is 0.03. GGCAGAGCUCAACACAGCGUGGCGAAGUGGCUGCGGCCAGACUGCC: the self-cleavage turned out to be 0.09. For the variant GGCAGAGCUCAACACAGCGUGGCAGAGUGCAUGUCGCUAGGCUGCC, the self-cleavage was 0.01. Take GGCAGAGCUCAACACAGCGUGGCAGAGUGGCUGUGGUUAGACUGCU: the self-cleavage was found to be 0.06. In the case of GGCAGAGCUCAACACAGCGUGGCAGCUUGGCUGUUGCUAGACAGCC, the self-cleavage came out at 0.02. In the case of GGCAGAGCUCAACACAGCGUGGCUACGUGACCGUGGCUAGACUGCC, the self-cleavage is 0.06. On to GGCAGAGCUCAACACAGCGUGGCGUGGUGGCUGUGGCUAGACUGUC, for which the self-cleavage came to 2.74. Consider GGCAGAGCUCAACACAGCGUGGCGAAGAUGCUGUGACUAGACUGCC, for which the self-cleavage came out at 0.05.

GGCAGAGCUCAACACAGCGUGGCACUUUGGCUGUGGCUAGACUGCC: the self-cleavage was 0.36.

As to GGCAGAGCUCAACACAGCGUGGCACAGUGGCUGUUGUUAGACUGCC, the self-cleavage came out at 0.04.

Regarding GGCAGAGCUCAACACAGCGUGGCACUGUGUCUGUGGCUAGACUGCC, the self-cleavage turned out to be 0.08.

For the variant GGCAGAGCUCAACACAGCGUGGCGAACCGGCUGUGGCUAGACUGCC, the self-cleavage stood at 0.13.
